From paper PMC4242493 come the findings set out here.

The other results are listed elsewhere or left out. The list includes weakly bound sequences.

For this test, the target named is MaxL homodimer (UniProt P61244). Put plainly: universal protein-binding microarray (PBM). The conditions noted are these: PBS-based mixture, 10 nM His-tagged protein dimer, 2% milk, 200 ng/uL BSA, 50 ng/uL salmon testes DNA, 0.02% TX-100; detection with Alexa 488 anti-His …; high values mean tight binding; most listed sequences are background and not binding sites; double strand, one strand shown.
UniProt P61244, sequence (P61244 whole entry): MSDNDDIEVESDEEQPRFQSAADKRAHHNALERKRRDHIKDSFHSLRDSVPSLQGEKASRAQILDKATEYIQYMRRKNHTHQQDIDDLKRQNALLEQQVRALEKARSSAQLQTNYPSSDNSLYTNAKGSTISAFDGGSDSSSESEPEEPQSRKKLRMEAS
For the sequence CTTTACGA, the binding signal (normalized occupancy) was found to be 0.0705. For CGCCGCGA the value was 0.0721; for GAAGTACC, 0.0766; for CCCCTCAA, 0.0738. Next, CCAGACAC: 0.0765; GCACACGA: 0.0896. For CAGTGGAG the value was 0.074. For the sequence CCCTTTAA, the binding signal (normalized occupancy) was found to be 0.0755. Next, CAAGTGTG: 0.086; CCGGCGTA: 0.0672. Regarding AGCGTCCG, the binding signal (normalized occupancy) came to 0.0696.

As for CGTTACTC, the binding signal (normalized occupancy) turned out to be 0.0776. Next, GTCTGACA: 0.077. Next, GTGGTACA: 0.0857; ACAGTTAT: 0.0749; GGGCGGGA: 0.0826. For ACCTTGCC the value was 0.0758; for CTATATAG, 0.0853; for GTGTAACA, 0.0821. Regarding TGACTTAA, the binding signal (normalized occupancy) is 0.0738. For CCGCGCTC the value was 0.07. For CAAAACGG the value was 0.0749; for CCATATCA, 0.0816.

In the case of ACATCCTC, the binding signal (normalized occupancy) turned out to be 0.0831. For ACCTTAGA the value was 0.0714; for AATAGCCA, 0.0717.

Regarding GGCGAGCA, the binding signal (normalized occupancy) stood at 0.0723. For CTAGGGTC, the binding signal (normalized occupancy) worked out at 0.0714. Regarding CACCCGGC, the binding signal (normalized occupancy) came out at 0.0772. On to CACCGTTA, for which the binding signal (normalized occupancy) turned out to be 0.0779. Next, ACATCATA: 0.0849. For CCGTAAAG the value was 0.0741; for GCCGTGCC, 0.0731; for CATGCACA, 0.0961.

Take AATGTTTG: the binding signal (normalized occupancy) is 0.0761. For TCATCTAA the value was 0.0752.

For the sequence AGCATTCG, the binding signal (normalized occupancy) was 0.0711.

In the case of ACAAATAT, the binding signal (normalized occupancy) is 0.0828. Next, GGGGCTAA: 0.0741; ACATACAT: 0.0931. For the sequence CTGGTCTC, the binding signal (normalized occupancy) amounted to 0.0687. Next, ATCTCTAC: 0.0742; ACAATAGA: 0.0762; CGCGAATA: 0.0733. AACGTGCA: the binding signal (normalized occupancy) amounted to 0.109.

Take CGCCTCTC: the binding signal (normalized occupancy) came to 0.0756.

With CTAGAGTA, the binding signal (normalized occupancy) was determined as 0.071. In the case of ACGCTCGC, the binding signal (normalized occupancy) is 0.079. On to ACGTGATG, for which the binding signal (normalized occupancy) is 0.103. For CGGTAGAA the value was 0.0732; for AGAACCAA, 0.0749.

With ATGCGGTA, the binding signal (normalized occupancy) was 0.0895. Regarding ATCAGGCC, the binding signal (normalized occupancy) amounted to 0.0779. For TCACGCGA the value was 0.11; for CACGAATA, 0.0763. Next, AGCTATCA: 0.0753. With AAGCGTCT, the binding signal (normalized occupancy) is 0.0699.

As to GACTGACC, the binding signal (normalized occupancy) amounted to 0.0743. With GGTACCAC, the binding signal (normalized occupancy) was 0.0743.

On to TAAGGCCA, for which the binding signal (normalized occupancy) was 0.0763. For the sequence TCAGTGGA, the binding signal (normalized occupancy) was 0.0707. AGGTCGGA: the binding signal (normalized occupancy) stood at 0.0712. For CCTGTAAA the value was 0.0779; for GGGTGGTA, 0.0821; for CTAGCTAA, 0.0691. Next, GGATTCTA: 0.0823.

Take AGTGAAAG: the binding signal (normalized occupancy) was determined as 0.0743. Next, ATAAGTCG: 0.0753; ACAACGAG: 0.0765; ATTGGCGG: 0.0732. As for CATTGTGG, the binding signal (normalized occupancy) stood at 0.0863.

Turning to CTCACAAA, the binding signal (normalized occupancy) was found to be 0.0699. For CGATGACC the value was 0.0756; for ATATCAGA, 0.0808. On to CATCTCTC, for which the binding signal (normalized occupancy) worked out at 0.0753. Take CGCATTAA: the binding signal (normalized occupancy) turned out to be 0.072. Next, AGCCCCCA: 0.073; ACCGCCGA: 0.07.

Consider GTCCCACA, for which the binding signal (normalized occupancy) was found to be 0.0798. For AACTTCTA the value was 0.0716; for CGCACCAG, 0.0773. Next, CCCGGATA: 0.0739. Regarding AGCCTGCG, the binding signal (normalized occupancy) is 0.0682. CCTAGTGA: the binding signal (normalized occupancy) was 0.0749. For ACCCTGAA the value was 0.0777. GGAGAACA: the binding signal (normalized occupancy) is 0.0748. AATCCCCG: the binding signal (normalized occupancy) came out at 0.0734. For CGCAGTGC the value was 0.0735.

As for AGGTAAAA, the binding signal (normalized occupancy) was found to be 0.0679. For GGTTTTCA the value was 0.0723. Next, AGCTAACG: 0.0696. In the case of AAGTCATC, the binding signal (normalized occupancy) is 0.0715. For the sequence GCCCACTA, the binding signal (normalized occupancy) amounted to 0.0792. For GCAAGCCC, the binding signal (normalized occupancy) came out at 0.0687. For AGATACAC the value was 0.0831; for GCCCACGA, 0.0823; for AACCAGGT, 0.0775. For CCTCCTGA the value was 0.0759; for ATCTCTGG, 0.0713.

As for CTCGCAAG, the binding signal (normalized occupancy) worked out at 0.0709.

Regarding CCTACGTC, the binding signal (normalized occupancy) is 0.0767.

For ACCCTGGA, the binding signal (normalized occupancy) turned out to be 0.0782.

For the sequence CCACGATC, the binding signal (normalized occupancy) was found to be 0.0837. Next, ACGCGTGG: 0.139; ACTGGGTA: 0.0746; GGATTTTA: 0.0772. For AAAACGCT the value was 0.0696; for AGTACGGA, 0.0713; for AGGGGGTC, 0.0831. For CGCTCCTA the value was 0.0734; for ACTCGAGA, 0.0749; for GAATCTAA, 0.0735. As for CCCGCCAC, the binding signal (normalized occupancy) came to 0.0753. As for TAACTTGA, the binding signal (normalized occupancy) is 0.0743. For TATACGGA the value was 0.0774; for ACGTGTTG, 0.109; for CCCAGTAG, 0.0725. Next, AGTACAAG: 0.0744; AGGAGGCC: 0.0712. For TAAAAACA the value was 0.0775; for ATGGTCAG, 0.0806. Regarding GGTATTAC, the binding signal (normalized occupancy) was determined as 0.0753. For ATGCTGTG the value was 0.0916; for AAGGTTGG, 0.0749; for AGGGGAGC, 0.0706.

Consider TCAGAAAA, for which the binding signal (normalized occupancy) came to 0.0729. As for ATGGAGGG, the binding signal (normalized occupancy) came out at 0.0787.

Take CACCAACA: the binding signal (normalized occupancy) worked out at 0.0785. In the case of TAAACTGA, the binding signal (normalized occupancy) turned out to be 0.0757. For AGGGGTAG the value was 0.082; for AGACACCT, 0.0786; for CACTCTCA, 0.0827.

Turning to ATGGCAGC, the binding signal (normalized occupancy) stood at 0.0797. Next, TCTAAAGA: 0.072; ACTAGTAC: 0.0749; CTTAGGTC: 0.0711. Consider ATTAAAAG, for which the binding signal (normalized occupancy) amounted to 0.0674.

Regarding TAACCGGA, the binding signal (normalized occupancy) came to 0.0702. For CTCAGGCA the value was 0.0739. Next, ACTGTGCT: 0.0715. Next, AGAGTAAC: 0.0759. CAATTCTC: the binding signal (normalized occupancy) was 0.0735. For AACCTTAG, the binding signal (normalized occupancy) amounted to 0.0729. Next, AGGGGTGA: 0.082; AACGATCT: 0.0769.

Consider AGGATAGC, for which the binding signal (normalized occupancy) amounted to 0.0766. For AATCAGCC the value was 0.069; for ACACCGAA, 0.078.

ATATAAGA: the binding signal (normalized occupancy) is 0.0838. For GCTTGTAA the value was 0.0753. For AGGGCCCT the value was 0.0684; for TACCTTGA, 0.0849. As for CACTAGCC, the binding signal (normalized occupancy) was 0.0749. Next, CACAGTCA: 0.0797; GCTTTCCA: 0.0685; ACGATTCA: 0.0773. As for GGTGTGCA, the binding signal (normalized occupancy) came out at 0.0858. For CATGCAAA the value was 0.0845; for CTGGGTGC, 0.0787; for CCTCGAAG, 0.0685.

GAATAACC: the binding signal (normalized occupancy) was found to be 0.0756. For CTGTGAGC the value was 0.0807; for CTCAGCTA, 0.0685.

With AGACCGTC, the binding signal (normalized occupancy) stood at 0.0782. Next, CAAAATAC: 0.0809. Consider GTCACTTA, for which the binding signal (normalized occupancy) amounted to 0.0732. Next, AGTCCTAA: 0.0726; ACTGATAT: 0.0787.

Take CGCAACAA: the binding signal (normalized occupancy) was found to be 0.072.

Consider ACTATCGC, for which the binding signal (normalized occupancy) was determined as 0.0742. Next, AGCATTGC: 0.0766; AGAAGGAC: 0.0703.
